# Results reported in the supplement of paper PMC3334620.
# Over roughly 33,000 sequences, “E-score (-0.5 to 0.5)” has its median near -0.021; the highest 2% begin near 0.32. This is one part of the list.
# Molecular target: T1, Zap1 (UniProt P47043)
# T1 sequence: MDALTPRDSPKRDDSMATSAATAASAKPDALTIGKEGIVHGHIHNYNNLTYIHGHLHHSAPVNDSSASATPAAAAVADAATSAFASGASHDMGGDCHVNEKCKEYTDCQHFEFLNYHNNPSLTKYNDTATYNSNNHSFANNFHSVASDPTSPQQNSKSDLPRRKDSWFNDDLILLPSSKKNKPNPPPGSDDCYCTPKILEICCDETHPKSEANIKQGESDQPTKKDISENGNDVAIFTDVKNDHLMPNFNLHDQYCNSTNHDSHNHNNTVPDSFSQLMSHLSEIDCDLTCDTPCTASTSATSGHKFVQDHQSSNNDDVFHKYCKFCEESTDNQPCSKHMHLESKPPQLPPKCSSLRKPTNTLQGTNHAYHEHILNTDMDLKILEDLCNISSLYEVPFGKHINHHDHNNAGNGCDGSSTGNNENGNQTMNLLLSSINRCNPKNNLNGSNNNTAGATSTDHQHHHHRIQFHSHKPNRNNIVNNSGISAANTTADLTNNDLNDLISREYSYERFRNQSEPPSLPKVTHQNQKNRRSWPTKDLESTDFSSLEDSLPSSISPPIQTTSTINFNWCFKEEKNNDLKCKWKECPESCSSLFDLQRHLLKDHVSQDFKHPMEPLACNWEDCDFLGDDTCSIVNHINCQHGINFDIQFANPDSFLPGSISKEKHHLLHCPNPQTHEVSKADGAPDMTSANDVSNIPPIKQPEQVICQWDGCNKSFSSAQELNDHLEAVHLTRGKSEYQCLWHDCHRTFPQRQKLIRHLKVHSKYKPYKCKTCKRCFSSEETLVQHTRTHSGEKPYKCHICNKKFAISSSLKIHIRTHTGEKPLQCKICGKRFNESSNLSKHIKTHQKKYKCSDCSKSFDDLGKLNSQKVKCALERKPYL
# Test: PBM E-score (8-mer binding enrichment) (E-score (-0.5 to 0.5)); higher = stronger / more preferred TF binding; most listed sequences are background and not binding sites
# Conditions: protein concentration: 200 nM; construct: GST-full length
# Method in brief: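 Universal all-10-mer Agilent arrays, double-stranded by primer extension on fresh or once-stripped slides, were probed with about 100-200 nM GST-tagged yeast transcription factors made by PURExpress. Fluorescent anti-GST detected bound protein, and masliner normalised the scans. E-scores from the Universal PBM Analysis Suite were given to each ungapped eight-base word pooled with its reverse complement.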
row,Sequence,PBM E-score
1,TGCATTAA,0.0493
2,AGGGACGA,-0.117
3,CAAGTAGA,-0.123
4,CCGGCAAC,-0.039
5,CTAGGAAA,-0.0218
6,CCGTCCCG,-0.21
7,ATGACTGG,-0.2
8,GAGCTATC,-0.0171
9,CCTTATGC,0.0959
10,GCGGCGGA,-0.0684
11,GTCCAGAA,-0.0234
12,GAGATGGC,-0.0104
13,GTCCCTGA,-0.0852
14,AGGTGGGG,0.25
15,CGTCACCC,0.2
16,CATAGCGA,-0.0788
17,CACTTTCG,-0.159
18,CACAGTTC,-0.0558
19,AAAATGGC,-0.0463
20,AAAGTCCA,0.123
21,GAACGAAC,-0.0025
22,AGCCTGGA,-0.188
23,AGGGCTAG,-0.185
24,ACTATCCT,-0.111
25,AATCCCTA,0.123

row,Sequence,PBM E-score
1,CTCAACTA,0.121
2,AGACAGAC,0.172
3,AGGGTCAG,0.24
4,GTAGACTA,-0.102
5,ATATAGAA,0.0773
6,AGTCGAGG,0.0295
7,TAATAGAA,0.171
8,CCTTGGGA,0.173
9,ACTTACCA,0.0218
10,ACCCCGAC,0.163
11,CGGGCTAA,-0.222
12,CATAGTGG,-0.198
13,AGAAGCAG,-0.0952
14,AGCCGTGG,-0.0798
15,CTCTGGTA,0.225
16,ACAAGGTG,0.192
17,GACGAGGA,-0.295
18,TATCGCGA,0.238
19,ACCAACTG,-0.0627
20,AGATCGTC,-0.184
21,AGGCCGAA,-0.102
22,GACATTAC,0.0741
23,GGCGATAA,0.0372
24,CACATCCC,-0.104
25,ATGATGAA,0.288

row,Sequence,PBM E-score
1,ATTTAGCC,-0.0172
2,CCATTTAC,0.138
3,ACCACTAT,0.138
4,AAAGAGGT,0.307
5,ACTGAGGA,-0.125
6,AAGGGATT,-0.119
7,ACCCAGCG,-0.00828
8,CTTGCATA,0.0374
9,AGCAGATA,-0.17
10,ATTTTGAA,0.126
11,GACTCAAC,-0.166
12,ATTTACGG,0.229
13,GATACAAC,0.182
14,TGCATGAA,0.009
15,CCACTAAC,0.14
16,CACCGTCG,-0.122
17,GATAGAGC,-0.0954
18,ACTTTACG,-0.14
19,AAAGTTCA,-0.0948
20,TGCCAAAA,0.125
21,CGTGGGAA,-0.113
22,GTATTAAC,0.122
23,ATATGGAT,0.0428
24,ACCTTGCT,0.218
25,ATCCACTG,-0.129

row,Sequence,PBM E-score
1,ACAGCTAG,-0.35
2,TAGCGGAA,-0.0454
3,CGGCACGC,-0.245
4,GGGGATCA,-0.309
5,AAAGTCCC,-0.103
6,CAAAGCAC,0.084
7,CTGTCTTC,-0.256
8,ACTTCGGG,-0.172
9,ACACAGGG,-0.043
10,CCAATTGC,-0.158
11,GGGCTTGA,-0.153
12,TGCTGTAA,0.0973
13,AACCTGAA,0.144
14,CATGGCAA,0.00526
15,GCCGAACA,-0.0261
16,CCAACTAG,-0.0636
17,TTCAACAA,0.133
18,AAATTATT,0.171
19,CCCGAATA,0.0841
20,AAGTAGAC,0.00956
21,CGTACAGA,-0.231
22,GACGAATA,0.0813
23,AATATGAG,0.00046
24,ATCTTCAA,0.0279
25,AAGGAATG,0.0153

row,Sequence,PBM E-score
1,GGGGCGCA,-0.221
2,ACACGCTC,-0.0264
3,CAGACTCG,-0.293
4,ATCTAGCC,-0.151
5,ACATTGAA,-0.0827
6,ACCTCAGC,-0.0701
7,ATAACCTA,0.458
8,ATTAGCTC,-0.132
9,CCGCACCG,0.0399
10,CTTGCCGA,-0.193
11,AGCCTACA,0.0687
12,ACCGTGAA,0.194
13,AGGGCATG,-0.0339
14,GGGCCTGA,-0.201
15,CACTCGCC,-0.159
16,CAACAGCC,0.0171
17,CCGGTACA,0.149
18,CACGAAGA,0.186
19,ATGTCATC,-0.123
20,ACAGGTGC,-0.176
21,AGTGCCAG,-0.314
22,ACGGGCGA,-0.17
23,ACGTAGTA,0.0481
24,ACTGATGG,-0.199
25,CTAAGGAC,-0.133

row,Sequence,PBM E-score
1,TTAAGTAA,0.0417
2,GACAAAAC,0.156
3,ATTTATGC,-0.128
4,AGACTACA,-0.17
5,AATCGTCT,-0.136
6,CAGGTTCG,-0.158
7,ACGCTTAG,-0.181
8,AGGCGTCA,-0.143
9,AGTGTATG,-0.035
10,AAGCATTC,-0.0259
11,ATTCCGAG,0.00285
12,CGGGGACC,0.127
13,CACTGGCA,-0.147
14,CGGAGGCC,0.00069
15,CTATTGAA,0.0157
16,CCAGCTCG,-0.254
17,TCATACAA,0.156
18,ATATTCTG,0.134
19,CTTACGCA,-0.0487
20,AATACGTC,0.034
21,CTAAGGTA,0.263
22,ACTTGTCC,-0.151
23,ATTACATC,0.0593
24,ATTAGCGA,0.0335
25,AGATAAGG,0.112

row,Sequence,PBM E-score
1,ACAAGCCT,-0.199
2,AGGTATAT,0.115
3,GGTAGCTA,-0.064
4,TAGTGACA,0.11
5,GTCTGCAA,-0.0455
6,ATTGTCAG,-0.00687
7,AGCGACCC,0.0346
8,AGGGGATC,-0.242
9,CGTAATCC,0.107
10,GAGAGACA,-0.0771
11,ACTGTACC,0.0256
12,AGCCGCAG,-0.197
13,AGGTTAAA,0.376
14,ACACAGAC,0.134
15,CGAGGGCG,-0.162
16,ATATATGG,0.157
17,ACCATATC,0.00066
18,CAGCTTGA,-0.117
19,AGTCTAAG,0.118
20,AGTACATA,0.077
21,GCAGTTCC,-0.0983
22,ATTCTCAA,0.108
